This note sets out measurements from the GPR68 mutational scans of Howard et al. (2025).

Scores whose standard error is large were omitted. Two further conditions of the source, in which the scores hardly spread, are not listed. In variant names, del marks residues removed and ins residues inserted between the two positions. For some assays here: The data file names ogerin without a concentration.

First the molecules themselves.
B1: GPR68, Q15743 (parent)
chain: MGNITADNSSMSCTIDHTIHQTLAPVVYVTVLVVGFPANCLSLYFGYLQIKARNELGVYLCNLTVADLFYICSLPFWLQYVLQHDNWSHGDLSCQVCGILLYENIYISVGFLCCISVDRYLAVAHPFRFHQFRTLKAAVGVSVVIWAKELLTSIYFLMHEEVIEDENQHRVCFEHYPIQAWQRAINYYRFLVGFLFPICLLLASYQGILRAVRRSHGTQKSRKDQIQRLVLSTVVIFLACFLPYHVLLLVRSVWEASCDFAKGVFNAYHFSLLLTSFNCVADPVLYCFVSETTHRDLARLRGACLAFLTCSRTGRAREAYPLGAPEASGKSGAQGEEPELLTKLHPAFQTPNSPGSGGFPTGRLA

Data set [1] covers variants of B1. Description: cAMP reporter score (Enrich2 score, wild type = 0); higher = more signal; HEK293T, FACS bins.
The variants in data set [2] derive from B1. Description: surface expression score (Enrich2 score, wild type = 0); higher = more signal; HEK293T, FACS bins.

For N278F, the cAMP reporter score in data set [1] (pH 5.5) is -1.85; in data set [1] (pH 6, modulator: ogerin), -0.564; in data set [1] (pH 6.5, modulator: ogerin) it was -0.91. Also, the surface expression score in data set [2] is -2.31.

On to N278E, for which the cAMP reporter score is -0.532 in data set [1] (pH 5.5); -1.92 in data set [1] (pH 6); -1.43 in data set [1] (pH 6, modulator: ogerin); -1.07 in data set [1] (pH 6.5, modulator: ogerin).

Take N278D: the cAMP reporter score in data set [1] (pH 5.5) was -2.16; in data set [1] (pH 6), -1.31; in data set [1] (pH 6, modulator: ogerin), -1.95; in data set [1] (pH 6.5, modulator: ogerin) it was -1.14. Also, in data set [2], the surface expression score is -2.31.

For the variant N278C, the cAMP reporter score is 0.369 in data set [1] (pH 5.5); -0.484 in data set [1] (pH 6); -0.888 in data set [1] (pH 6, modulator: ogerin); -0.635 in data set [1] (pH 6.5, modulator: ogerin). In addition, in data set [2], the surface expression score worked out at 1.39.

As to N278G, the cAMP reporter score is 0.193 in data set [1] (pH 5.5); -0.76 in data set [1] (pH 6); -0.788 in data set [1] (pH 6, modulator: ogerin); -0.397 in data set [1] (pH 6.5, modulator: ogerin). The surface expression score in data set [2] is 0.888.

As for N266del, the cAMP reporter score in data set [1] (pH 5.5) is 0.042; in data set [1] (pH 6), -0.155; in data set [1] (pH 6.5, modulator: ogerin), 0.02. Moreover, the surface expression score in data set [2] is -2.62.

On to F270H, for which the cAMP reporter score in data set [1] (pH 5.5) was -1.26; in data set [1] (pH 6) it was -1.65; in data set [1] (pH 6, modulator: ogerin) it was -1.77; in data set [1] (pH 6.5, modulator: ogerin) it was -0.479. Also, the surface expression score in data set [2] was -2.43.

F270T: the cAMP reporter score was 0.519 in data set [1] (pH 5.5); -1.08 in data set [1] (pH 6); 0.304 in data set [1] (pH 6, modulator: ogerin); -0.653 in data set [1] (pH 6.5, modulator: ogerin). Moreover, the surface expression score in data set [2] is -0.328.

Turning to F270V, the cAMP reporter score in data set [1] (pH 5.5) is 0.416; in data set [1] (pH 6), -0.568; in data set [1] (pH 6, modulator: ogerin), 0.375; in data set [1] (pH 6.5, modulator: ogerin), -0.01. Besides, in data set [2], the surface expression score is 0.797.

F270N: the cAMP reporter score in data set [1] (pH 5.5) is -0.412; in data set [1] (pH 6), -0.06; in data set [1] (pH 6, modulator: ogerin), -0.65. Besides, the surface expression score in data set [2] was -0.409.

For the variant F270D, the cAMP reporter score in data set [1] (pH 5.5) is -1.1; in data set [1] (pH 6) it was -0.894; in data set [1] (pH 6, modulator: ogerin), -1.94; in data set [1] (pH 6.5, modulator: ogerin), -1.01. The surface expression score in data set [2] was -2.29.

Turning to F270G, the cAMP reporter score in data set [1] (pH 5.5) is -0.45; in data set [1] (pH 6), -0.815; in data set [1] (pH 6, modulator: ogerin), -0.158; in data set [1] (pH 6.5, modulator: ogerin), 0.104. Moreover, the surface expression score in data set [2] is -0.32.

In the case of F270K, the cAMP reporter score in data set [1] (pH 5.5) was -1.89; in data set [1] (pH 6), -1.14; in data set [1] (pH 6, modulator: ogerin) it was -1.69; in data set [1] (pH 6.5, modulator: ogerin), -1.11. Also, in data set [2], the surface expression score is -1.3.

As to F270L, the cAMP reporter score is -0.108 in data set [1] (pH 5.5); -1.15 in data set [1] (pH 6); -0.804 in data set [1] (pH 6, modulator: ogerin); -1.66 in data set [1] (pH 6.5, modulator: ogerin). The surface expression score in data set [2] stood at 0.119.

F270A: the cAMP reporter score is 0.287 in data set [1] (pH 5.5); 0.32 in data set [1] (pH 6); 0.377 in data set [1] (pH 6, modulator: ogerin); -0.19 in data set [1] (pH 6.5, modulator: ogerin). In addition, in data set [2], the surface expression score turned out to be 1.13.

For the variant F270R, the cAMP reporter score in data set [1] (pH 5.5) was -1.29; in data set [1] (pH 6), -0.692; in data set [1] (pH 6, modulator: ogerin) it was -0.979; in data set [1] (pH 6.5, modulator: ogerin), -1.59. Moreover, the surface expression score in data set [2] is -2.64.

With F270Q, the cAMP reporter score was -1.24 in data set [1] (pH 5.5); -0.968 in data set [1] (pH 6); -0.868 in data set [1] (pH 6, modulator: ogerin); -0.698 in data set [1] (pH 6.5, modulator: ogerin). In addition, the surface expression score in data set [2] is -2.32.

Take F270S: the cAMP reporter score in data set [1] (pH 5.5) is -0.537; in data set [1] (pH 6), -0.83; in data set [1] (pH 6, modulator: ogerin), -1.05; in data set [1] (pH 6.5, modulator: ogerin), -0.696. Moreover, the surface expression score in data set [2] was 0.148.

As for F270C, the cAMP reporter score in data set [1] (pH 5.5) is -0.607; in data set [1] (pH 6) it was -0.251; in data set [1] (pH 6, modulator: ogerin) it was -0.412; in data set [1] (pH 6.5, modulator: ogerin), -1.7. Moreover, the surface expression score in data set [2] was -1.17.

As for F270Y, the cAMP reporter score in data set [1] (pH 5.5) is -0.15; in data set [1] (pH 6), -0.558; in data set [1] (pH 6, modulator: ogerin), -0.792; in data set [1] (pH 6.5, modulator: ogerin) it was -0.876. Further, in data set [2], the surface expression score is -1.07.

Consider F270W, for which the cAMP reporter score is -0.779 in data set [1] (pH 5.5); -0.954 in data set [1] (pH 6); -1.53 in data set [1] (pH 6, modulator: ogerin); -0.581 in data set [1] (pH 6.5, modulator: ogerin). In addition, the surface expression score in data set [2] is -1.1.

As for F270E, the cAMP reporter score in data set [1] (pH 5.5) was -2.07; in data set [1] (pH 6, modulator: ogerin) it was -0.998; in data set [1] (pH 6.5, modulator: ogerin), -1.49.

Consider F270I, for which the cAMP reporter score in data set [1] (pH 5.5) is -0.279; in data set [1] (pH 6), -1.77; in data set [1] (pH 6, modulator: ogerin), -0.737; in data set [1] (pH 6.5, modulator: ogerin), -1.8. Also, the surface expression score in data set [2] worked out at 0.411.

For the variant F270P, the cAMP reporter score is -2 in data set [1] (pH 5.5); -0.54 in data set [1] (pH 6); -1.72 in data set [1] (pH 6, modulator: ogerin). Besides, in data set [2], the surface expression score was -1.36.

With F270M, the cAMP reporter score in data set [1] (pH 5.5) is -0.29; in data set [1] (pH 6) it was -1.58; in data set [1] (pH 6, modulator: ogerin), -0.294; in data set [1] (pH 6.5, modulator: ogerin), -0.622. Besides, the surface expression score in data set [2] is -0.359.

Take F277_N278insGS: the cAMP reporter score was -1.37 in data set [1] (pH 5.5); -0.63 in data set [1] (pH 6); -1.5 in data set [1] (pH 6, modulator: ogerin); -1.3 in data set [1] (pH 6.5, modulator: ogerin). The surface expression score in data set [2] is -2.12.

Consider L274_T275insGSG, for which the cAMP reporter score was -1.11 in data set [1] (pH 5.5); -0.658 in data set [1] (pH 6); -0.648 in data set [1] (pH 6.5, modulator: ogerin). For the same variant, in data set [2], the surface expression score was -2.14.

With F265T, the cAMP reporter score in data set [1] (pH 5.5) is -0.745; in data set [1] (pH 6, modulator: ogerin), -0.459. Also, in data set [2], the surface expression score was 0.472.

Consider F265V, for which the cAMP reporter score stood at 0.428 in data set [1] (pH 5.5); 0.063 in data set [1] (pH 6, modulator: ogerin); 2.04 in data set [1] (pH 6.5, modulator: ogerin). Besides, the surface expression score in data set [2] was found to be 1.41.

Turning to F265S, the cAMP reporter score in data set [1] (pH 5.5) was 0.392; in data set [1] (pH 6), -0.456; in data set [1] (pH 6, modulator: ogerin) it was -0.101; in data set [1] (pH 6.5, modulator: ogerin) it was -0.467. In addition, the surface expression score in data set [2] is 0.467.

As to F265R, the cAMP reporter score is -0.615 in data set [1] (pH 5.5); -0.165 in data set [1] (pH 6); -0.114 in data set [1] (pH 6, modulator: ogerin); -0.8 in data set [1] (pH 6.5, modulator: ogerin). The surface expression score in data set [2] was -1.04.

For the variant F265Y, the cAMP reporter score in data set [1] (pH 5.5) is -0.158; in data set [1] (pH 6) it was -1.2; in data set [1] (pH 6, modulator: ogerin), 0.131; in data set [1] (pH 6.5, modulator: ogerin), -0.945. Besides, in data set [2], the surface expression score came out at 1.45.
